Laboratory results as given in PubChem BioAssay (NCATS).
Several values for one entry are separate records, joined by “and”; a condition that tells them apart may be missing. Equal entries are not always repeated. The list shows a part of the results. The main result of the screen is listed elsewhere. These columns were measured beside it and carry no call. For some of these results: Compounds called inactive in the main read-out are mostly missing here. For some of these results: Potencies come from curve fits of mixed quality, noted in brackets.

Key:
[1] = qHTS Assay for Lipid Storage Modulators (AID 1519); conditions: Drosophila S3 cells, BODIPY lipid droplet/cell ratio, laser cytometry, cells loaded with oleic acid
How it was run: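 Cells seeded at 5,000 per well were treated with compounds over a concentration series and loaded with oleic acid (400 uM, as added). Lipid droplet fluorescence (488 nm excitation, 500-530 nm channel) was read by laser-scanning cytometry and normalized to 20 uM Triacsin C.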

[2] = qHTS assay for small molecule antagonists of androgen receptor signaling (AID 588516); conditions: AR-UAS-bla HEK293, beta-lactamase ratio, antagonist mode, 16 h
How it was run: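 Antagonist mode: inhibition of R1881-stimulated (10 nM final) bla reporter in GeneBLAzer AR HEK 293 cells, 16 h at 37C, compounds titrated. IC50 and efficacy from Hill-equation fits of 405/460–530 nm FRET ratios.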

[3] = qHTS assay for small molecule antagonists of peroxisome proliferator-activated receptor delta signaling (AID 588535); conditions: HEK293T PPARd-UAS-bla, beta-lactamase FRET ratio, 18 h; 460 nm channel;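 also: cells co-treated with a PPAR-delta agonist as stimulator during compound exposure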
How it was run: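 Cells were seeded at 4000 per well in assay medium containing 2% charcoal/dextran FBS and held 5 hrs at 37 C. Compounds were then added for 18 hrs. CCF4 substrate was applied for 2 hrs at room temperature before fluorescence reading.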

[4] = qHTS assay for small molecule antagonists of peroxisome proliferator-activated receptor gamma signaling (AID 588537); conditions: HEK293 PPARg-UAS-bla, beta-lactamase ratio, antagonist mode; measured here: W460 blue channel
How it was run: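 Step one: plate 3000 HEK293 UAS-bla cells per well in medium with 1% stripped serum and hold 6-6.5 h at 37 C. Step two: add compound and 50 nM agonist for 16 h. Step three: CCF4 loading, fluorescence read.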

[5] = qHTS assay for small molecule antagonists of vitamin D receptor signaling (AID 588541); conditions: HEK293T VDR-UAS-bla, beta-lactamase ratio, antagonist mode; measured here: W460 blue channel (cell viability)
[6] = qHTS assay for small molecule agonists of retinoid X receptor alpha signaling (AID 588544); conditions: HEK293T RXRa-UAS-bla, beta-lactamase reporter, 18 h; 530 nm emission
[7] = qHTS assay for small molecule antagonists of retinoid X receptor alpha signaling (AID 588546); conditions: HEK293T RXRa-UAS-bla, beta-lactamase ratio, antagonist mode; measured here: W530 green channel, cytotoxicity proxy;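 also: cells stimulated with 9-cis-retinoic acid as agonist; % is scaled to controls: 0 for no effect and ±100 for the full control effect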
How it was run: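 Beta-lactamase reporter inhibition, read as CCF4 fluorescence ratio (ex 405, em 460/530 nm) after 2 h at RT. HEK293T UAS-bla cells, 2500/well, were stimulated with 9-cis-RA at 500 or 100 nM final alongside test compound for 18 h at 37 C.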

[8] = qHTS drug screen for cell cycle checkpoint inhibitors in PARPi-resistant BRCA-mutant ovarian cancer cell lines. (AID 1963452); conditions: PEO1/OlaR viability, CellTiter-Glo luminescence, 96 h
How it was run: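 PEO1, PEO4 and PEO1/OlaR ovarian cancer cells, 600 per well, exposed 96 h at 37C to a dilution series. Viability read by CellTiter-Glo luminescence, normalized to DMSO and empty wells; activity summarized as Z-AUC.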

[9] = S16 Schwann cell PMP22 intronic element beta-lactamase assay (AID 624044); conditions: S16 rat Schwann cells, PMP22 element beta-lactamase FRET, 24 h; measured here: 460 nm blue channel; also: nearly all actives have a fitted effect of over 15% in size
How it was run: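 Rat S16 Schwann cells with beta-Lac driven by a PMP22 intronic element, compound-treated 24 h at 37 °C. LiveBLAzer FRET B/G read: 460 nm normalized to potassium clavulanate vs DMSO; 535 nm FRET as viability; concentration-effect curves classified.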

[10] = A High-Content qHTS Against Drug Library for the Identification of Small Molecules that Inhibit DYT1 Early Onset Primary Dystonia-Associated Cell Pathology (AID 1645839); conditions: HEK293 Flp-In EGFP-delE TorsinA, punctate imaging, 48 h; measured here: cell count cytotoxicity
How it was run: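 Flp-In T-REx 293 cells with tetracycline-inducible EGFP-delE hTOR1A (WT EGFP-hTOR1A as reference), 800 cells/well; compound added with tetracycline, 48 h at 37 C. Fixed, permeabilized cells imaged; %pathology (punctate TorsinA) primary, cell count counterscreen.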

[11] = qHTS for identification of novel therapeutic agents for treatment of microphthalmiaassociated transcription factor (MiT) renal cell carcinoma (RCC) (AID 1963991); conditions: CellTiter-Glo, 48 h; for z-score: stronger effect = lower value;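 as to z-score: curves scaled with 100% = DMSO viability and 0% = empty wells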
How it was run: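 UOK109/UOK124/UOK145 (TFE3 fusions, three partners); 500 cells/well; MIPE v4.0, 1912 cpds, 11 conc.; 48 h, 37 C; CellTiter-Glo, 15 min RT; lum. Norm.: DMSO 100%, empty 0%.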

[12] = qHTS Assay for Modulators of Human Peripheral Myelin Protein 22 (PMP22) Expression/Activity (AID 1967); conditions: Cell-based PMP22 reporter, dual-color luciferase ratio
How it was run: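 Mouse MSC80 Schwann cells carrying Pmp22 promoter–green click beetle luciferase plus EF-alpha–red luciferase control, dosed 24 h at 37 °C. Dual-filter luminescence, overlap-corrected; %Activity from green/red ratio normalised to untreated cells, concentration-response curves fitted.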

[13] = biological target: Histamine N-methyltransferase (Homo sapiens) (UniProt P50135); test: Confirmatory Screen for Target Class Profiling of Small Molecule Inhibitors of Methyltransferases (AID 1745852); conditions: MTase-Glo luminescence, SAH detection, recombinant enzyme; measured here: HNMT inhibition potency;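 also: inhibitor potency for blocking SAH production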
Chain of UniProt P50135 (P50135 whole entry, looked up): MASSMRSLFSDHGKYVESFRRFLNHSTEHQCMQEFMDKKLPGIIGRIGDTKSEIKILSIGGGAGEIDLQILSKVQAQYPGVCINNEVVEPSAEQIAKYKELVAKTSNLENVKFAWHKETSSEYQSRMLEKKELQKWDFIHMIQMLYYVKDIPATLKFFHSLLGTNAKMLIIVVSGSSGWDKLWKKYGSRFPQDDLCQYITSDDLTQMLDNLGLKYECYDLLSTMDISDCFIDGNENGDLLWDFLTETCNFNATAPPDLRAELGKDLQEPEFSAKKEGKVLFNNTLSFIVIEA

[14] = qHTS Validation Assay to Find Inhibitors of Chronic Active B-Cell Receptor Signaling (AID 485345); conditions: ABC-DLBCL cells, chronic BCR signaling reporter
How it was run: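 TMD8 ABC-DLBCL cells stably carrying doxycycline-inducible IkappaBalpha–green luciferase fusion plus unfused red luciferase; compounds 46 uM to 3 nM, 4 h at 37C with doxycycline. Corrected green/red luminescence ratio normalized to 10 uM MG-132 and basal cell wells; curves fitted.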

[15] = Nrf2 qHTS screen for inhibitors: Validation (AID 493153); conditions: A549 ARE-Fluc reporter, 18-24 h; AC50: CellTiter-Fluor fluorescence read, measured here: cytotoxicity CellTiter-Fluor AC50; viability change: measured here: cytotoxicity max response
How it was run: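 Dose-response validation uses reporter A549 cells with firefly luciferase under an antioxidant response element. Compounds stay on cells 18-24 h at 37°C, and luminescence indicates Nrf2-driven transcription.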

[16] = biological target: Catechol O-methyltransferase (Homo sapiens) (UniProt P21964); test: Confirmatory Screen for Target Class Profiling of Small Molecule Inhibitors of Methyltransferases (AID 1745852); conditions: MTase-Glo luminescence, SAH detection, recombinant enzyme; measured here: COMT inhibition potency;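 also: inhibitor potency for blocking SAH production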
Chain of UniProt P21964 (P21964 whole entry, looked up): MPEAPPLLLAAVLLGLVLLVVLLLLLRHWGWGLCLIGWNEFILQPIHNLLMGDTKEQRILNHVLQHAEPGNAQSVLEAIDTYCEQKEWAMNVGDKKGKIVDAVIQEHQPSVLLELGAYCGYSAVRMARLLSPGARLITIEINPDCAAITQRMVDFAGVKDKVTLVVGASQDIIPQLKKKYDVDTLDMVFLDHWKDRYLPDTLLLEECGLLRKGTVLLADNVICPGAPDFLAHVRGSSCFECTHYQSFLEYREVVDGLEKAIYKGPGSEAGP

[17] = biological target: Nicotinamide N-methyltransferase (Homo sapiens) (UniProt P40261); test: as above; conditions: MTase-Glo luminescence, SAH detection, recombinant enzyme; measured here: NNMT inhibition potency
Chain of UniProt P40261 (P40261 whole entry, looked up): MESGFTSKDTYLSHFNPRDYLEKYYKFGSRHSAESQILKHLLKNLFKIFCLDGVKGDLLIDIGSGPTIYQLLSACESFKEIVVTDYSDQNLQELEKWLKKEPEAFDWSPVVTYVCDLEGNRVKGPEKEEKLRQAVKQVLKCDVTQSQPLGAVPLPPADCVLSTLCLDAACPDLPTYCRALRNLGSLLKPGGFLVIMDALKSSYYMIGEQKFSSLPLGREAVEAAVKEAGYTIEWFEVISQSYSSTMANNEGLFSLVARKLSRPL

[18] = biological target: Phenylethanolamine N-methyltransferase (Homo sapiens) (UniProt P11086); test: as above; conditions: MTase-Glo luminescence, SAH detection, recombinant enzyme; measured here: PNMT inhibition potency
Chain of UniProt P11086 (P11086 whole entry, looked up): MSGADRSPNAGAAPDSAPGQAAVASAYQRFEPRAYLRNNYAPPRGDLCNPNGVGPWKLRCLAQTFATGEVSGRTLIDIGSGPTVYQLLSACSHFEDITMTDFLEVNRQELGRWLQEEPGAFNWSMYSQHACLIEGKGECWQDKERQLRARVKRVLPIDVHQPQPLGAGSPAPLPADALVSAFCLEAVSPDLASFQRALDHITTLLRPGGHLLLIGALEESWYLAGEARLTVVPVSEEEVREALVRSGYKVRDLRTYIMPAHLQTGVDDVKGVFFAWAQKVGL

[19] = qHTS Assay for Inhibitors of PDE-IV (AID 607); conditions: HEK293 ACTOne CNG channel cells, membrane potential fluorescence; measured here: parental cell counter-screen;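 also: parental cells stimulated with forskolin 10 µM plus RO 20-1724 100 µM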
How it was run: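 The readout is membrane depolarisation from a cAMP-sensing CNG channel, detected with a potential dye at ex 535/em 590. Cells were HEK293-derived (endogenous PDE-IV) at 1000 cells/well, titrated up to 22.9 uM final.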

[20] = measured here: cell count channel max response
[21] = measured here: cell number channel AC50
[22] = measured here: lipid (BODIPY) channel AC50
[23] = measured here: lipid channel max response
[24] = measured here: PEO1 parental viability
[25] = TFE3-RCC UOK109 viability, measured here: UOK109 Z-AUC
[26] = TFE3-RCC viability, measured here: UOK124 Z-AUC
[27] = TFE3-RCC viability, measured here: UOK124 cell viability
[28] = TFE3-RCC viability, measured here: UOK145 Z-AUC
[29] = TFE3-RCC viability, measured here: UOK145 cell viability
[30] = measured here: red reporter channel AC50, EF-alpha promoter control reporter in MSC80 mouse Schwann cells
[31] = measured here: green reporter channel AC50, mouse Pmp22 promoter in mouse Schwann cells
Tags tell the direction and shape of the fitted curve.

Compound: C[C@H]1O[C@@H](O[C@H]2[C@@H](O)C[C@H](O[C@H]3[C@@H](O)C[C@H](O[C@H]4CC[C@@]5(C)[C@H](CC[C@@H]6[C@@H]5C[C@@H](O)[C@]5(C)[C@@H](C7=CC(=O)OC7)CC[C@]65O)C4)O[C@@H]3C)O[C@@H]2C)C[C@H](O)[C@@H]1O
- max response [1, 20]: 72.3%
- AC50 [1, 21]: 10 µM [rising, partial curve, poor fit]
- AC50 [1, 22]: 11.2 µM [rising, partial curve, poor fit]
- max response [1, 23]: 83.6%
- AC50 ([2]; measured here: W460 blue channel fit): 1 µM [falling, full curve]
- AC50 ([2]; measured here: W530 green channel, cytotoxicity/artifact): 0.355 µM [rising, full curve]
- max response [3]: -90.3% and -95.4%
- AC50 [4]: 3.98 µM [falling, full curve] and 35.5 µM [falling, partial curve, poor fit]
- AC50 [5]: 100 nM [falling, full curve] and 1.41 µM [falling, full curve]
- max response [6]: 58.8% and 48.1%
- max response [7]: 42.4% and 52.4%
- AC50 [8, 24]: 0.245 µM [falling, full curve]
- AC50 ([8]; measured here: PEO4 viability): 0.0977 µM [falling, full curve]

Compound: COC(=O)Nc1nc2ccc(Sc3ccccc3)cc2[nH]1
- max response [1, 20]: -39.5%
- AC50 [1, 21]: 12.6 µM [falling, partial curve, poor fit]
- AC50 [1, 22]: 14.1 µM [falling, partial curve, poor fit]
- max response [1, 23]: -51.8%
- AC50 [9]: 3.01 µM [falling, full curve, poor fit]
- AC50 [10]: 0.316 µM [falling, full curve, poor fit]
- AC50 [8, 24]: 0.275 µM [falling, full curve]
- AC50 ([8]; measured here: PEO4 viability): 0.219 µM [falling, full curve]
- z-score [11, 25]: 0.706
- z-score [11, 26]: -0.576
- AC50 [11, 27]: 1.48 µM [falling, full curve]
- z-score [11, 28]: 0.629
- AC50 [11, 29]: 1.18 µM [falling, full curve]

Compound: CC1CCN=C(N)S1 (configuration not stated)
- max response [1, 20]: 11.7%
- AC50 [1, 21]: 7.94 µM [falling, partial curve, poor fit]
- AC50 [1, 22]: 7.94 µM [falling, partial curve, poor fit]
- max response [1, 23]: 11.5%
- AC50 [12, 30]: 19 µM [rising, single point]
- IC50 [13]: 17.2 µM [falling, partial curve, poor fit]

Compound: C[C@H](Cc1ccc(O)c(O)c1)[C@@H](C)Cc1ccc(O)c(O)c1
- max response [1, 20]: -82.4%
- AC50 [1, 21]: 35.5 µM [falling, partial curve, poor fit]
- AC50 [1, 22]: 35.5 µM [falling, partial curve, poor fit]
- max response [1, 23]: -83.3%
- AC50 [12, 31]: 37.9 µM [falling, partial curve]
- AC50 [12, 30]: 84.9 µM [falling, single point]
- AC50 ([14]; measured here: CBG/CBR ratio read-out): 20.6 µM [falling, partial curve]
- AC50 ([14]; measured here: CBR control luciferase (viability counter)): 29.1 µM [falling, single point]
- viability change [15]: -6.93%
- IC50 [16]: 1.09 µM [rising, full curve]
- IC50 [13]: 34.3 µM [falling, single point]
- IC50 [17]: 27.3 µM [falling, partial curve]
- IC50 [18]: 24.3 µM [falling, partial curve]
- AC50 [8, 24]: 15.5 µM [falling, partial curve, poor fit]
- AC50 ([8]; measured here: PEO4 viability): 24.5 µM [falling, single point]
- z-score [11, 25]: 0.691
- z-score [11, 26]: 0.801
- AC50 [11, 27]: 23.5 µM [falling, single point]
- z-score [11, 28]: 0.537

Compound: C=CCN1CCc2c(cc(O)c(O)c2Br)[C@@H](c2ccccc2)C1
- max response [1, 20]: 57.3%
- AC50 [1, 21]: 28.2 µM [falling, partial curve, poor fit]
- AC50 [1, 22]: 28.2 µM [falling, partial curve, poor fit]
- max response [1, 23]: 56.7%
- AC50 [12, 30]: 15.1 µM [falling, full curve, poor fit]
- IC50 [16]: 17.2 µM [rising, partial curve]

Compound: Cc1ncc([N+](=O)[O-])n1CCO
- max response [1, 20]: 3.94%
- AC50 [1, 21]: 0.0141 µM [rising, partial curve, poor fit]
- AC50 [1, 22]: 2 µM [rising, partial curve, poor fit]
- max response [1, 23]: 4.92%
- AC50 [4]: 70.8 µM [rising, single point]
- AC50 [10]: 35.5 µM [rising, partial curve, poor fit]
- z-score [11, 25]: -0.534
- z-score [11, 26]: 0.817
- z-score [11, 28]: -0.414
- AC50 [11, 29]: 0.0132 µM [rising, full curve]

Compound: CN1CCC(=C2c3ccccc3C=Cc3ccccc32)CC1
- AC50 [19]: 15.8 µM [rising, partial curve]
- max response [1, 20]: 42.6%
- AC50 [1, 21]: 3.16 µM [rising, full curve, poor fit]
- AC50 [1, 22]: 3.16 µM [rising, full curve, poor fit]
- max response [1, 23]: 51.2%
- AC50 [12, 31]: 60.1 µM [falling, partial curve]
- AC50 [12, 30]: 75.7 µM [falling, partial curve, poor fit]
- AC50 [10]: 11.2 µM [falling, partial curve, poor fit]
- AC50 [8, 24]: 12.3 µM [falling, partial curve, poor fit]
- AC50 ([8]; measured here: PEO4 viability): 11 µM [falling, partial curve, poor fit]
- z-score [11, 25]: -0.0916
- z-score [11, 26]: -0.151
- AC50 [11, 27]: 14.8 µM [falling, partial curve]
- z-score [11, 28]: -0.409
- AC50 [11, 29]: 18.7 µM [falling, partial curve, poor fit]
